Data reported in the supplement of paper PMC3334620.
In all, about 33,000 sequences were measured (“E-score (-0.5 to 0.5)”: median about -0.012, highest 2% from about 0.29 on). Some of the results follow.

Target: T1, Ybr033w (UniProt P38073)
T1 sequence: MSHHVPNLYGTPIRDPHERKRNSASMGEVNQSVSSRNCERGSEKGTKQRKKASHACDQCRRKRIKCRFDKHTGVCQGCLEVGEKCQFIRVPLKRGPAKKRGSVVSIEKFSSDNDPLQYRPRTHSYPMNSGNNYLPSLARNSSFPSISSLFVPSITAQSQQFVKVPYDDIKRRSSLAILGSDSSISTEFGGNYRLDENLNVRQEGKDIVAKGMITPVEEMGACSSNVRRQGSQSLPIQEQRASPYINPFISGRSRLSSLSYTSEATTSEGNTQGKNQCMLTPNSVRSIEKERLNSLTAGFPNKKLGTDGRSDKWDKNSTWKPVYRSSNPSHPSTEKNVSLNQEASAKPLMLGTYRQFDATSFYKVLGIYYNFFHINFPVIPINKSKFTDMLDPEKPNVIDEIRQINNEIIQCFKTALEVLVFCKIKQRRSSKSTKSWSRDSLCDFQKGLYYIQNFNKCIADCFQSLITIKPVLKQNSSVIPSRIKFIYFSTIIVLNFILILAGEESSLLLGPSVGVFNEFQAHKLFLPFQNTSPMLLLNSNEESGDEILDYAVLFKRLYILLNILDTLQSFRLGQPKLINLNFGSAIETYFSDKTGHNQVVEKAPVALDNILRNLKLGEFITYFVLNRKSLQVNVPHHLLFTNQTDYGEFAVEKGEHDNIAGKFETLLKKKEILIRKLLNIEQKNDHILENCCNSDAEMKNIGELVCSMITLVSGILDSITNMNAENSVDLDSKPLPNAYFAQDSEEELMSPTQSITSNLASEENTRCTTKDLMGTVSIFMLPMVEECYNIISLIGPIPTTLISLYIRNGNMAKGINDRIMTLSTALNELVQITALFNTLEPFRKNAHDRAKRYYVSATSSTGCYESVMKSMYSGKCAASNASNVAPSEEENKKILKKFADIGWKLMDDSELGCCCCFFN
Assay: PBM E-score (8-mer binding enrichment) (E-score (-0.5 to 0.5)); higher = stronger / more preferred TF binding; most listed sequences are background and not binding sites
Settings: protein concentration: 200 nM; construct: GST-full length
In short: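 Yeast transcription factors carrying a GST tag, as full-length proteins or DNA-binding domains, were produced by PURExpress in vitro transcription/translation. About 100-200 nM protein was applied to universal all-10-mer Agilent arrays, double-stranded by primer extension on fresh or once-stripped slides. Bound protein was detected with fluorescent anti-GST, and scans were normalised with masliner. The Universal PBM Analysis Suite gave each ungapped eight-base word, pooled with its reverse complement, an E-score, a modified Wilcoxon-Mann-Whitney statistic.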

Sequence | PBM E-score
CTGATCGC | 0.00198
CCATGCGA | 0.0197
ATCACTAA | 0.157
CCCGCCCC | -0.0411
AAGAATCC | 0.00137
CCTGCTAG | -0.203
AAGGATGC | -0.0451
AGGCATTC | -0.0335
ACATCTCG | 0.098
GACGCAAA | -0.111
GCTGACTA | -0.221
ACTATGCA | -0.00525
TAGCTTAA | 0.0971
GAAGCGCC | -0.0866
TAATATAA | 0.379
AATCCCTC | 0.0521
AGCGCGCA | 0.174
CGAGCTTC | 0.0666
ATGTCTCG | -0.0693
AGAACCTA | 0.123
CCATACTC | -0.104
AAGTTGAA | 0.0758

Sequence | PBM E-score
CATTTGCA | 0.135
ACCATCTA | 0.0217
GCCTATGA | -0.202
AGTTCAAG | 0.142
GTCACGCA | 0.0466
CACCACTC | 0.155
ACTCACTC | -0.1
CAGCAAGC | -0.17
ACCACCGG | -0.0262
AATTGAAC | 0.0553
GAGCCCCA | -0.245
AGCGGCAA | -0.143
ACTATAGA | 0.153
ACCCCTGG | -0.304
CCATACAG | -0.108
AATCCAAT | 0.0841
GCCATAAA | -0.0384
GGTAAACC | -0.0889
GATGGATA | 0.0529
ACCTTACT | 0.149
TAAGGCGA | 0.0361
AACAGAGT | 0.141

Sequence | PBM E-score
GTACGTAA | 0.0793
AATGCGAA | 0.0782
GTTATAAC | -0.0791
ATAACTCG | 0.077
CCCAAGAA | -0.0558
AAGCTGTG | 0.061
ATGAGCTA | 0.0508
GGGATTTA | 0.0689
GTTAAATA | 0.278
ACCATCAT | 0.0599
GAACGGCA | 0.0282
CAGCACGA | -0.0474
CACGTAAC | -0.0872
GCCGCTAC | -0.121
AGTATGTG | 0.118
TGTGAGAA | 0.0323
ACGGGATC | 0.0182
GAGAGTCA | -0.0369
TCCACCCA | -0.209
ATCAGCTC | 0.0196
ATGTAGTA | 0.243
GCACTGAA | 0.2

Sequence | PBM E-score
TAAGTCTA | 0.019
CTAACCCA | -0.159
TGTTGAAA | 0.205
CTTTAGGA | -0.0366
CGGCCCCC | -0.425
GGTTAACC | -0.0947
AAGCGTCA | 0.0898
GGCCGCCC | -0.348
AACCTTTG | 0.0759
AACATTCC | 0.0163
CGATTCCA | -0.0329
AGGTTACC | 0.0897
CGAGGTTC | 0.0874
ATGAAACC | 0.141
AGTCCCAA | -0.122
AATTGTGA | 0.215
CGGAGTTC | 0.0444
AGTCTTAA | -0.0706
CCATAACA | 0.132
GTTGAGTA | 0.127
